Legend:
human RON receptor [1] = target: T1, human RON receptor (human, UniProt Q04912 25-1400); test: flow cytometry on HT29 cells, FITC-coupled anti-human IgG1 secondary
Procedure: Colon cancer HT29 cell line expressing ˜19,000 RON molecules per cell were used as the model. Mouse PCM5B14 was used as the positive control. Individual H5B14 clones at different concentrations were incubated with cells followed by addition of FITC-coupled anti-human IgG1 antibody. Fluorescence intensities from individual samples were analyzed using the BD flow cytometer. Results in FIG. 2 are the dose-dependent specific binding of individual H5B14s. […] Results in Table 1 show the individual values reflecting the binding affinity and sensitivity of individual H5B14 clones to human RON receptor.

human RON receptor [2] = target: T1, human RON receptor; test: cell-based or functional assay

T1 sequence (Q04912 25-1400): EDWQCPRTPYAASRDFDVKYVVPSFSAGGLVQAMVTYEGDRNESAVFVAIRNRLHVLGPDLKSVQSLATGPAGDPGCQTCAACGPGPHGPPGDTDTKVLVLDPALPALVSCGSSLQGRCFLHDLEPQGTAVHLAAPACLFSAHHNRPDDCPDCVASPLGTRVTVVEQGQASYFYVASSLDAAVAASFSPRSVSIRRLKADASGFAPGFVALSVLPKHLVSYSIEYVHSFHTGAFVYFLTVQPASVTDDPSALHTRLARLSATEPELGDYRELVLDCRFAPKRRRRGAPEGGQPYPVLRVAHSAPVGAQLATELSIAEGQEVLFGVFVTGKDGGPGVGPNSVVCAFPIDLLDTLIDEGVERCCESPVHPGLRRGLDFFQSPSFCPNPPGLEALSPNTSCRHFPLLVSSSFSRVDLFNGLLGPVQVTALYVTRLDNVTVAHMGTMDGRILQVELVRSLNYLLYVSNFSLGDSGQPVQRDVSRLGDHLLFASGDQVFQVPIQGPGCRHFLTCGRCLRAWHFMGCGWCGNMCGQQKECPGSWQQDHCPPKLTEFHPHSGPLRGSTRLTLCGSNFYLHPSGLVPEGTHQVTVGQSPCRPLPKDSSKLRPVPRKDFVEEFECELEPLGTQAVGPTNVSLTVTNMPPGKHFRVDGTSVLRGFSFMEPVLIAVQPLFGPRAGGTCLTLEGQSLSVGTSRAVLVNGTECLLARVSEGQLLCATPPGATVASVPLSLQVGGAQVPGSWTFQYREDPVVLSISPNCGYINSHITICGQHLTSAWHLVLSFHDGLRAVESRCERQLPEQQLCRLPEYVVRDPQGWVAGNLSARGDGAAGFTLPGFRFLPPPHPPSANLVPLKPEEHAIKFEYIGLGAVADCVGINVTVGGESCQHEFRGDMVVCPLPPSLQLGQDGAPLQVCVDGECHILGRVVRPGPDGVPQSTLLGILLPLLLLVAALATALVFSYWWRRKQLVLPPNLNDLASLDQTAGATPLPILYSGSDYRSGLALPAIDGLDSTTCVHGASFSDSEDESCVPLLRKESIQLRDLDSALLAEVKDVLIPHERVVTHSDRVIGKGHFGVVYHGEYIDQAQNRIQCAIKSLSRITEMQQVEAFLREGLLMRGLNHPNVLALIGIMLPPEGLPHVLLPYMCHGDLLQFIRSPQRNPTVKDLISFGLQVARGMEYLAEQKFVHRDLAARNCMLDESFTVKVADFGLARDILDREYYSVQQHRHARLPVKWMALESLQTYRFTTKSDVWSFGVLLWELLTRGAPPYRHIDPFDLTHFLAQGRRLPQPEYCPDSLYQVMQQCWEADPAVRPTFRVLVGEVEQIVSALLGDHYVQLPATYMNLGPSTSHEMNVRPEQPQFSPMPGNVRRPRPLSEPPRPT

EC50 (human RON receptor [1]) | LogEC50 (human RON receptor [1]) | Binder | minimal amounts of H5B14-MMAE required to killing 50% of cancer cells (IC50), MTS assay, 72 hours (human RON receptor [2])
2.17 µg/mL | 0.336 log(µg/ml) | 5B14-H2L2 (antibody, part only; not given: Humanized light chain L2, IgG1, part only) heavy: QVQLVQSGAEVKKPGATVKISCKVSGYTFTDYHMDWVQQAPGKGLEWMGDINPNNGGAIYNQKFKGRVTITADTSTDTAYMELSSLRSEDTAVYYCARSHYDYAGGAWFAYWGQGTLVTVSR[human IgG1 constant region not printed] | 
 |  | H5B14 conjugated with MMAE (H5B14-MMAE) (other, MMAE conjugated randomly through a protease-sensitive dipeptide linker (Maleimidocaproyl-Val-Cit-PABC), DAR 4:1 (average 3.76); chain and residues not stated) heavy: QVQLVQSGAEVKKPGATVKISCKVSGYTFTDYHMDWVQQAPGKGLEWMGDINPNNGGAIYNQKFKGRVTITADTSTDTAYMELSSLRSEDTAVYYCARSHYDYAGGAWFAYWGQGTLVTVSR[human IgG1 constant region not printed] light: EIVMTQSPGTLSLSPGERATLSCKSSQSLLFSGNQKNYLAWYQQKPGQAPRLLIYWASTRASGIPDRFSGSGSGTDFTLTISRLEPEDFAVYYCQQYYSFPRTFGQGTKLEIKRTVAAPSVFIFPPSDEQLKSGTASVVCLLNNFYPREAKVQWKVDNALQSGNSQESVTEQDSKDSTYSLSSTLTLSKADYEKHKVYACEVTHQGLSSPVTKSFNRGEC | 1 to 3 µg/mL

— US20190352422A1 (PCM TARGETECH, published 2019)
